The other results are listed elsewhere or left out. These are noisy estimates, calculated here from bound and input reads.
These sequences were tested against T1, Pho4 (S. cerevisiae) (UniProt P07270) (assay: relative binding free energy (BET-seq); higher = weaker binding). Settings: reference: library average.
T1 sequence: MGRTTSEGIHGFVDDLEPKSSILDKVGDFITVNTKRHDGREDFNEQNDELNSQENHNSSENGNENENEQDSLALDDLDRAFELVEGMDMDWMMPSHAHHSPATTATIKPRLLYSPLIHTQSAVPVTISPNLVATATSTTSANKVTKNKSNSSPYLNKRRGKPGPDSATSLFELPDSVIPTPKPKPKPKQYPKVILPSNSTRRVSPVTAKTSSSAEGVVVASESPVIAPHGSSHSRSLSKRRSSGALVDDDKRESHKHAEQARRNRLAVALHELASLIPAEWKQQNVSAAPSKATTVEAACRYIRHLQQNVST

| Sequence | relative binding free energy |
| --- | --- |
| ATCGGCACGTGACGGT | 0.11 kcal/mol |
| TACAGCACGTGTGGTA | 0.04 kcal/mol |
| GTCAGCACGTGGGTGC | -0.26 kcal/mol |
| TGAGTCACGTGCCGGT | 0.14 kcal/mol |
| GGGGACACGTGTGGGT | 0.21 kcal/mol |
| TAGACCACGTGGGATG | -0.07 kcal/mol |
| TTAGTCACGTGGAGGT | 0.04 kcal/mol |
| TTGGTCACGTGGGGAT | 0.07 kcal/mol |
| GTAAACACGTGGGGAA | 0.14 kcal/mol |
| CGGTACACGTGTTGGG | 0.18 kcal/mol |
| TTGTACACGTGCTCGG | 0.08 kcal/mol |
| TCGTGCACGTGAGTGT | 0.15 kcal/mol |
| CAGGTCACGTGAGGGC | 0.25 kcal/mol |
| CGGGACACGTGTGAAG | 0.12 kcal/mol |
| GTTATCACGTGGACGT | 0.14 kcal/mol |
| TTGCTCACGTGGTGGC | 0.02 kcal/mol |
| TAGACCACGTGTGTGG | -0.09 kcal/mol |
| GTTTTCACGTGAGTGA | 0.36 kcal/mol |
| TGATGCACGTGGGAAA | -0.07 kcal/mol |
| TTGGTCACGTGTGGGG | 0.28 kcal/mol |
| CGTAACACGTGAGGGG | 0.16 kcal/mol |

| Sequence | relative binding free energy |
| --- | --- |
| GTTTACACGTGTTTGT | 0.18 kcal/mol |
| GTATACACGTGGTTGC | 0.24 kcal/mol |
| GCTTACACGTGGGTTG | -0.04 kcal/mol |
| TACGTCACGTGTGGGA | 0.08 kcal/mol |
| GTATACACGTGGTGCT | 0.05 kcal/mol |
| GCGTGCACGTGCGAGG | -0.12 kcal/mol |
| TTTGGCACGTGGCCGT | 0 kcal/mol |
| AGAGACACGTGTAGTA | 0.01 kcal/mol |
| GTCATCACGTGGTTCG | 0.22 kcal/mol |
| GGGAACACGTGGTGAG | 0.07 kcal/mol |
| GCTGGCACGTGAAGGG | 0.3 kcal/mol |
| TCGAACACGTGGTGTA | -0.09 kcal/mol |
| ATTCTCACGTGCTTGG | 0.17 kcal/mol |
| CGCTTCACGTGGAGGG | 0.21 kcal/mol |
| GGTTCCACGTGGCATT | 0.07 kcal/mol |
| GGTTGCACGTGGTAAT | 0.02 kcal/mol |
| GGTGTCACGTGTCGGT | 0.18 kcal/mol |
| AAGATCACGTGGTAAT | 0.02 kcal/mol |
| TCTGTCACGTGCTGGG | 0.02 kcal/mol |
| TGGTGCACGTGTCGTC | 0.07 kcal/mol |
| AGTGGCACGTGTGTTG | -0.1 kcal/mol |

| Sequence | relative binding free energy |
| --- | --- |
| GTTTACACGTGGGAGC | 0.07 kcal/mol |
| TGTATCACGTGTCTAT | 0.16 kcal/mol |
| TTTAACACGTGCTATG | -0.09 kcal/mol |
| TGGTACACGTGTTTTT | 0.07 kcal/mol |
| GTGGACACGTGGTGCT | -0.01 kcal/mol |
| TGAACCACGTGTTTGG | 0.01 kcal/mol |
| TATGTCACGTGTATTT | 0.09 kcal/mol |
| CTGTTCACGTGTTAAT | 0.32 kcal/mol |
| TAGATCACGTGCGTGG | 0.09 kcal/mol |
| CTAGACACGTGGCGGG | -0.05 kcal/mol |
| GGTGTCACGTGTTTTA | 0.09 kcal/mol |
| TCGGTCACGTGATGTG | 0.34 kcal/mol |
| TGTTGCACGTGATCGA | 0.12 kcal/mol |
| ATGATCACGTGTAAGT | 0.14 kcal/mol |
| AAGTTCACGTGAGAGT | 0.49 kcal/mol |
| TGAGGCACGTGTTTGG | 0.04 kcal/mol |
| ACTGTCACGTGAGGAT | 0.31 kcal/mol |
| ATTGTCACGTGAATAT | 0.21 kcal/mol |
| GTAATCACGTGAGGGG | 0.33 kcal/mol |
| AGTGTCACGTGATTCA | 0.14 kcal/mol |
| TGTGCCACGTGTAGAT | 0.08 kcal/mol |
